The campaign covered roughly 310,000 compounds. About 2,200 (0.71%) showed an effect of 50% or more. Effects have a minus sign here. Some of the results follow.
target: human ether-à-go-go-related gene (hERG) potassium channel (human, UniProt Q12809); test: primary screen, population patch clamp on CHO cells stably expressing hERG
Sequence (Q12809 whole entry, looked up): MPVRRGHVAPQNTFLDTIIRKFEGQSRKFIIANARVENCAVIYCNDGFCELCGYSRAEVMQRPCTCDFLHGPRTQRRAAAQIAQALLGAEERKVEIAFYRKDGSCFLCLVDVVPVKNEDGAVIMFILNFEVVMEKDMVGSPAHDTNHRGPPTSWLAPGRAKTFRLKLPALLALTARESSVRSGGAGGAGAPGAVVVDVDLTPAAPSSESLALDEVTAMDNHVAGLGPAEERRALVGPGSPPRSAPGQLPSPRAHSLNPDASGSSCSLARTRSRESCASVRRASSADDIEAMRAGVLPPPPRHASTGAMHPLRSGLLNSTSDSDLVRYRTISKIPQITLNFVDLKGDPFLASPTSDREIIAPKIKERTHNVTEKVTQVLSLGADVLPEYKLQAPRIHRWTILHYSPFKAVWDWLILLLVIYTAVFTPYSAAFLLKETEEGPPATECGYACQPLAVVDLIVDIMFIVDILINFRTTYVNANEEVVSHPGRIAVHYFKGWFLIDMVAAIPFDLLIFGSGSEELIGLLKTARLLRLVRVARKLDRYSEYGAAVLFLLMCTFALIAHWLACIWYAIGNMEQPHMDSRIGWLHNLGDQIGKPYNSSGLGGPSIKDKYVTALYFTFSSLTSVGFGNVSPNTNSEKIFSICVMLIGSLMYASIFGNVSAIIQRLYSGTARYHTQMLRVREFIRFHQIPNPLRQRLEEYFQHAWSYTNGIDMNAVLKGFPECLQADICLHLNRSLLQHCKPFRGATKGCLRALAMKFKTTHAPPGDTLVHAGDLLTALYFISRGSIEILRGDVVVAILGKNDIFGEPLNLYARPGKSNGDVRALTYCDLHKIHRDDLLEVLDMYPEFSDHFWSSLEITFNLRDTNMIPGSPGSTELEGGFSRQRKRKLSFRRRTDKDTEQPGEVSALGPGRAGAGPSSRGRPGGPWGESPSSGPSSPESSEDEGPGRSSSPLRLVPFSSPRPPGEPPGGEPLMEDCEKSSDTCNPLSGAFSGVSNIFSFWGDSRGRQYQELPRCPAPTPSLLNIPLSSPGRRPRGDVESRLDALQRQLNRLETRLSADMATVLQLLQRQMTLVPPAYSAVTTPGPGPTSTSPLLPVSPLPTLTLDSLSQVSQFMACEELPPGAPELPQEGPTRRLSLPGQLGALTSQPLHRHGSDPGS

In order of rising “hERG current change (%, negative = inhibition) at 1uM” value:
1. C=CCC(=O)N(CC)CC1CCCN(CCc2cccc(F)c2)C1 (stereo not shown)  -17.6%
2. Cc1noc(C)c1COc1cccc(C(=O)OC(C)C(=O)Nc2ccc3c(c2)OCO3)c1 (stereo not shown)  -15.9%
3. CCOC(=O)C1CCCN(C(=O)/C=C/c2cccc([N+](=O)[O-])c2)C1 (stereo not shown)  -14.5%
4. Cc1[nH]nc(-c2ccc(O)c(C)c2O)c1Oc1ccccc1  -5.33%
5. O=C1CC(c2ccccc2)n2ncnc2N1 (stereo not shown)  -4.79%
6. O=C(N/N=C/c1cccc([N+](=O)[O-])c1)c1cnccn1  -4.22%
7. COC(=O)C1=C(C)N=C2SCCC(=O)N2C1c1ccc(C(=O)OC)cc1 (stereo not shown)  -3.74%
8. COc1ccccc1CNC(=O)COC(=O)CCN=C1NS(=O)(=O)c2ccccc21  0.349%
9. COC(=O)c1cc(OC)c(OC)cc1NC(=S)N1CCN(c2ccccn2)CC1  0.439%
10. Cc1cc(=O)n2ccsc2n1  0.473%
11. Cc1cc(C(=O)NCC2CCCO2)n(-c2ccccc2)n1 (stereo not shown)  2.41%
12. O=C(CN1CC(c2ccccc2)CC1=O)Nc1cccc(F)c1 (stereo not shown)  3.88%
13. COC(=O)c1ccc2c(c1)C(=O)N(C1CCCCC1)C2=O  4.05%
14. CCOC(=O)c1ccccc1Nc1cn(C(C)=O)c2ccccc12  4.49%
15. CC1(OC(=O)C2CCCC2)C(=O)C=C2C=C(C3CC3)OC=C2C1=O (stereo not shown)  4.57%
16. COc1ccc2oc(=O)c(C(=O)O)cc2c1  4.58%
17. COC(=O)c1cc(=O)c2cccc(OC)c2[nH]1  5.26%
18. CCCNCc1nnc(-c2ccccc2Cl)o1  5.32%
19. Cc1ccc(N2C(=O)N(CC(=O)NC(c3ccccc3)c3ccccc3)C(=O)C2C)cc1 (stereo not shown)  5.84%
20. COc1cc2c(cc1N/C=C(\C#N)c1nc(-c3ccccc3)cs1)oc1ccccc12  6.05%
21. Cc1ccc(-n2c(C)c3c(C)nnc(C)c3c2C)cc1N  6.08%
22. Cn1c(=O)[nH]c(=O)c2c1nc(N1CCCCC1)n2CCSc1nc2ccccc2o1  6.39%
23. Cc1nnc(N(C)C(=O)c2cnccn2)s1  6.59%
24. O=C(OCn1nnc2ccccc2c1=O)C1CCCCC1  6.6%
25. COC(=O)c1ccc(NC(=S)N2CCN(Cc3ccccc3)CC2)cc1  6.61%
26. O=C(Nc1ccc(Br)c2cccnc12)c1ccc(Cn2cc([N+](=O)[O-])cn2)o1  7.15%
27. Fc1ccc2[nH]c3c(N4CCN(c5ccccc5)CC4)ncnc3c2c1  7.4%
28. O=C(CN(c1ccc(Cl)cc1)S(=O)(=O)c1ccccc1)N1CCN(c2ccccc2)CC1  7.61%
29. CCOc1ccc(S(=O)(=O)Nc2ccc(Cl)cn2)c(C)c1C  7.79%
30. Cc1nn(-c2ccccc2)c(N2CCCCC2)c1/C=N/NC(=O)c1ccncc1  8.23%
31. COCc1nc2ccccc2n1Cc1ccccc1C  8.46%
32. Cc1noc(C)c1C(=O)N(CC(=O)Nc1ccc(Cl)c(C(F)(F)F)c1)Cc1ccco1  8.49%
33. Cc1cc(C)c(S(=O)(=O)N2CCN(S(=O)(=O)N3CCOCC3)CC2)c(C)c1  8.8%
34. CC1CCCCN1C(=O)CSc1nnc(-c2cccs2)o1 (stereo not shown)  9.89%
35. Cn1cc(C(=O)N/N=C/c2ccc([N+](=O)[O-])cc2)c2ccccc21  9.99%
36. CCC1=NN2C(=N)/C(=C/c3cc(C)n(Cc4ccccc4)c3C)C(=O)N=C2S1  10%
37. COc1cccc(C(=O)NCc2cccnc2)c1  10.1%
38. Cc1ccc(C(=O)NNC(=O)c2cccs2)cc1  10.1%
39. CCN(C(=S)NC(=O)C1CC1)c1ccccc1  10.4%
40. CC1=CC(C)C2C(=O)N(c3ccccc3)C(=O)C2C1 (stereo not shown)  10.8%
41. COc1ccc2oc(C(=O)OCC(=O)Nc3ccc(NC(C)=O)cc3)c(C)c2c1  10.9%
42. O=C(N/N=C/c1cccnc1)c1cc(-c2ccc(Cl)cc2)nc2ccccc12  11.1%
43. O=c1c(-c2cnn(-c3ccccc3)c2)coc2cc(O)ccc12  12.5%
44. CCc1nn2c(N)c(/C=C3\C=Nc4ccccc43)c(=O)nc2s1  12.7%
45. COc1cc(N/N=C/c2ccc(N(C)C)cc2)ncn1  12.7%
46. CCn1c(SCC(=O)Nc2nccs2)nnc1-c1ccc(S(=O)(=O)N2CCCCCC2)cc1  13.6%
47. CCN(CC)CCCNC(=O)C1c2cc(OC)c(OC)cc2C(=O)N(C)C1c1cccnc1 (stereo not shown)  13.7%
48. COc1ccc(N(CC(=O)NCc2ccccc2Cl)S(=O)(=O)c2c(C)noc2C)cc1  13.7%
49. O=C(CNc1ccc2ccccc2c1)N/N=C/C=C/c1cccc([N+](=O)[O-])c1  13.8%
50. CC(C)CCNC(=O)C1CCCN1C(=O)NC1CCCCC1 (stereo not shown)  13.9%
51. O=C(CCNC(=O)C1CCN(S(=O)(=O)c2ccccc2)CC1)NCc1ccccn1  14.3%
52. CC(=O)c1sc(NC(=O)c2cc(=O)c3ccccc3o2)nc1C  14.5%
53. CCN(CC)C(=O)COc1cccc2ccccc12  15.7%
54. COCc1nc(-c2ccc(-c3ccc(OC)cc3)nc2OC)no1  16.4%
55. Cc1ccc(-n2c(=S)[nH]c3sc4c(c3c2=O)CCc2ccccc2-4)cc1  17.4%
56. O=C(CCCSc1nc2ccccc2[nH]1)NC1CCCCC1  18.1%
57. O=C1COc2ccc(S(=O)(=O)N3CCCCCC3)cc2N1  18.3%
58. CC(C)CCN1C(=O)c2ccc(C(=O)Nc3ccc(Br)cc3C(=O)O)cc2C1=O  21.6%
